Paper PMC4949998
Results are given in words; binding and its absence hold for the method and conditions named. For some of these results: Binding seen in cells or lysates may run through a third protein. Some results given as binding are weak or reduced against the parent protein; the word gives no strength. For some of these results: Where a sequence is shown, tags or fusion partners need not be part of it.

T1: MRE11 deletion construct without the C-terminal domain (MRE11 up to residue 529) (Arabidopsis thaliana) (UniProt Q9XGM2)
T1 sequence: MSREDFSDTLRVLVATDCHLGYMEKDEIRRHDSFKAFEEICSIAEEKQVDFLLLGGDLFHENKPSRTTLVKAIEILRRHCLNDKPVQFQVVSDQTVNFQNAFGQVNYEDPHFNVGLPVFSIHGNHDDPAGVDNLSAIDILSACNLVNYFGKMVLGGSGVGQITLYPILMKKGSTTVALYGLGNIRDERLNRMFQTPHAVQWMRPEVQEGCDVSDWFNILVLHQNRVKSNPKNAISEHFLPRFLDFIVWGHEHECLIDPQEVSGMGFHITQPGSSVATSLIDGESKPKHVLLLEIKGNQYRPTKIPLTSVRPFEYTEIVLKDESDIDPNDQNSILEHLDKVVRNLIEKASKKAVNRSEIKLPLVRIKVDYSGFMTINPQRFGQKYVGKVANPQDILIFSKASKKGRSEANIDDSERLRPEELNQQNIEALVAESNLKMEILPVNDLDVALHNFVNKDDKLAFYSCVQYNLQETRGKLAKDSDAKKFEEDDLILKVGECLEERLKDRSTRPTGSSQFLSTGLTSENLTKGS

T2: Arabidopsis MRE11, full-length, GAL4 DNA-binding domain fusion (two-hybrid bait) (Arabidopsis thaliana) (UniProt Q9XGM2)
T2 sequence: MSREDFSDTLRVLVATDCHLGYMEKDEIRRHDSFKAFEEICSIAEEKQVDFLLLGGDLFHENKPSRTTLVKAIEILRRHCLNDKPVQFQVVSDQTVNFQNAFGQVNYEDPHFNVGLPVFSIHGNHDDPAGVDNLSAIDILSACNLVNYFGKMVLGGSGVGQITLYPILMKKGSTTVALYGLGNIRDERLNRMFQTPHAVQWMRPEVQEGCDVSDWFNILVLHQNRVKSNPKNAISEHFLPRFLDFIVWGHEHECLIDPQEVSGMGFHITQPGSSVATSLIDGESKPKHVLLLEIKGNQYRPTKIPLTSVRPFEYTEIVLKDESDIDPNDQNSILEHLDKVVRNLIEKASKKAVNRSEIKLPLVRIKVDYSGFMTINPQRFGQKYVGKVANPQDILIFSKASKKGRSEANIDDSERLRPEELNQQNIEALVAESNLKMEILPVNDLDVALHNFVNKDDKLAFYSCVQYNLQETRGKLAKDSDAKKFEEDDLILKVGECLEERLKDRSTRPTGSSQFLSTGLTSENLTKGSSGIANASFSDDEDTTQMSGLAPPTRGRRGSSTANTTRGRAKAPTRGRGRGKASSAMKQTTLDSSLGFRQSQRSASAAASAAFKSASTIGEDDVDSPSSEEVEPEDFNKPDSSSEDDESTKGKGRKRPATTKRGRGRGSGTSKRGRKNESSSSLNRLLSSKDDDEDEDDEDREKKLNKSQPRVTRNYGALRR

T3: MRE11-nYFP (Arabidopsis thaliana) (UniProt Q9XGM2)
T3 sequence: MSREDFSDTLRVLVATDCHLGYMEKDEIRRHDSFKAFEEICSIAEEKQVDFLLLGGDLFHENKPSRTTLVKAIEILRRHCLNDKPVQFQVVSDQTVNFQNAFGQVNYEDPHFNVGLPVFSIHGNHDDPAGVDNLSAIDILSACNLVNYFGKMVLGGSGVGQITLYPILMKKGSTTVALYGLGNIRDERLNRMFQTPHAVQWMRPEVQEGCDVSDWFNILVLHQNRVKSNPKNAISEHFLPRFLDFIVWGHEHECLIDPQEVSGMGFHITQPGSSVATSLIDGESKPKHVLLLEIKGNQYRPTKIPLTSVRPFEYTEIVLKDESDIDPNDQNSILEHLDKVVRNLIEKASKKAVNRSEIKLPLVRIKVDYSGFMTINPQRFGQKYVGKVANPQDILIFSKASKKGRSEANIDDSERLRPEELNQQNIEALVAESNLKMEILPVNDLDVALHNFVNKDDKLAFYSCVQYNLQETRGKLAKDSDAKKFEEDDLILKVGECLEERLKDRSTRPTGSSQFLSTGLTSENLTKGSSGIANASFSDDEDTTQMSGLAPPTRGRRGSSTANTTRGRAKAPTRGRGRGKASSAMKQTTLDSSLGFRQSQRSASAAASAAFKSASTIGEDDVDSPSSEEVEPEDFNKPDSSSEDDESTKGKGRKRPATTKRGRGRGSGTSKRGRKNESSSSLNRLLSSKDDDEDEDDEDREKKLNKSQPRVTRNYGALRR

B1: TAF1 C-terminal region isolated in the yeast two-hybrid screen (domain or fragment, UniProt Q8LRK9 1278-1919)
chain: LCRLLMQDEDQKKKKKKMKGVGEGMGSYPPPRPNIALQSGEPVRKANAMDKKPIAIQPDASFLVNESTIKDNRNVDSIIKTPKGKQVKENSNSLGQLKKVKILNENLKVFKEKKSARENFVCGACGQHGHMRTNKHCPRYRENTESQPEGIDMDKSAGKPSSSEPSGLPKLKPIKNSKAAPKSAMKTSVDEALKGDKLSSKTGGLPLKFRYGIPAGDLSDKPVSEAPGSSEQAVVSDIDTGIKSTSKISKLKISSKAKPKESKGESERRSHSLMPTFSRERGESESHKPSVSGQPLSSTERNQAASSRHTISIPRPSLSMDTDQAESRRPHLVIRPPTEREQPQKKLVIKRSKEMNDHDMSSLEESPRFESRKTKRMAELAGFQRQQSFRLSENSLERRPKEDRVWWEEEEISTGRHREVRARRDYDDMSVSEEPNEIAEIRRYEEVIRSEREEEERQKAKKKKKKKKLQPEIVEGYLEDYPPRKNDRRLSERGRNVRSRYVSDFERDGAEYAPQPKRRKKGEVGLANILERIVDTLRLKEEVSRLFLKPVSKKEAPDYLDIVENPMDLSTIRDKVRKIEYRNREQFRHDVWQIKYNAHLYNDGRNPGIPPLADQLLEICDYLLDDYEDQLKEAEKGIDPND
B2: TAF1(1278–1919)-cYFP (domain or fragment, UniProt Q8LRK9 1278-1919)
chain: LCRLLMQDEDQKKKKKKMKGVGEGMGSYPPPRPNIALQSGEPVRKANAMDKKPIAIQPDASFLVNESTIKDNRNVDSIIKTPKGKQVKENSNSLGQLKKVKILNENLKVFKEKKSARENFVCGACGQHGHMRTNKHCPRYRENTESQPEGIDMDKSAGKPSSSEPSGLPKLKPIKNSKAAPKSAMKTSVDEALKGDKLSSKTGGLPLKFRYGIPAGDLSDKPVSEAPGSSEQAVVSDIDTGIKSTSKISKLKISSKAKPKESKGESERRSHSLMPTFSRERGESESHKPSVSGQPLSSTERNQAASSRHTISIPRPSLSMDTDQAESRRPHLVIRPPTEREQPQKKLVIKRSKEMNDHDMSSLEESPRFESRKTKRMAELAGFQRQQSFRLSENSLERRPKEDRVWWEEEEISTGRHREVRARRDYDDMSVSEEPNEIAEIRRYEEVIRSEREEEERQKAKKKKKKKKLQPEIVEGYLEDYPPRKNDRRLSERGRNVRSRYVSDFERDGAEYAPQPKRRKKGEVGLANILERIVDTLRLKEEVSRLFLKPVSKKEAPDYLDIVENPMDLSTIRDKVRKIEYRNREQFRHDVWQIKYNAHLYNDGRNPGIPPLADQLLEICDYLLDDYEDQLKEAEKGIDPND
B3: NBS1-cYFP (protein, UniProt Q0H8D7 1-542)
chain: MVWGLFPVDPLSGEDKYYIFSKGIYKVGRKGCDIIINKDKGVSRIHAELTFDATTVSTSRRNKSSSDTSSFVIRVKDCSKYGTFVKTDLGTKDKVHELSNKEKILQDGDVIAFGTGSAIYRLSLIPLVFYLCPSSETFKVDQPVQDAVSSIGARISPTLSEECTHVLLEPRMQVNEALINAILAKKTIILTNWVMLLAEKSICSEIPGYSQYRPSVMVEEALVDVLELNVREKCLEGFTFVLEPTDTYRFGCSFPSLLEVCGAETVTIEDISSMSQDSQFGEINRMICVIPKSAGDKFGRFKHLSLLSRVNEMDLVCAVFSGNLPSTSLIPPSVVISSSCSTDETVVADSEAEEEETTSSVHMIDATEKAETPEKPAAIVIEDSPVTILEETSNLNEFKSVNLLADTESRGHMDEKNSSDSVTIRRDRNDEAETGKSEIIYTQDLIVRDLRSTRKVQSTGGEGVVDFKRFRKGNVTCGNSFSSLIPFAKDPYKEYDSWDVTDFMKEEKKRKQMEAIAEDLFKTEKARKRGTAGSIRGFLSGS
B4: TAF1(1755–1919)-cYFP (domain or fragment, UniProt Q8LRK9 1755-1919)
chain: LEDYPPRKNDRRLSERGRNVRSRYVSDFERDGAEYAPQPKRRKKGEVGLANILERIVDTLRLKEEVSRLFLKPVSKKEAPDYLDIVENPMDLSTIRDKVRKIEYRNREQFRHDVWQIKYNAHLYNDGRNPGIPPLADQLLEICDYLLDDYEDQLKEAEKGIDPND
B5: TAF1(1246–1606)-cYFP (domain or fragment, UniProt Q8LRK9 1246-1606)
chain: KLDGVKGLKMRRRPSQVETDEEIEDEATEYAELCRLLMQDEDQKKKKKKMKGVGEGMGSYPPPRPNIALQSGEPVRKANAMDKKPIAIQPDASFLVNESTIKDNRNVDSIIKTPKGKQVKENSNSLGQLKKVKILNENLKVFKEKKSARENFVCGACGQHGHMRTNKHCPRYRENTESQPEGIDMDKSAGKPSSSEPSGLPKLKPIKNSKAAPKSAMKTSVDEALKGDKLSSKTGGLPLKFRYGIPAGDLSDKPVSEAPGSSEQAVVSDIDTGIKSTSKISKLKISSKAKPKESKGESERRSHSLMPTFSRERGESESHKPSVSGQPLSSTERNQAASSRHTISIPRPSLSMDTDQAESRR

Columns and labels:
[1] = target: T1, MRE11 deletion construct without the C-terminal domain (MRE11 up to residue 529) (Arabidopsis thaliana); assay: two-hybrid; direct test after plasmid isolation and re-transformation into the yeast reporter strain AH109; MRE11 full length and deletion constructs against the TAF1 C-terminal region
[2] = target: T2, Arabidopsis MRE11, full-length, GAL4 DNA-binding domain fusion (two-hybrid bait) (Arabidopsis thaliana); assay: as above
[3] = target: T2, Arabidopsis MRE11, full-length, GAL4 DNA-binding domain fusion (two-hybrid bait) (Arabidopsis thaliana); assay: two-hybrid; library screen: full-length MRE11 bait (GAL4 DNA-binding domain) against an Arabidopsis activation domain library; selection without tryptophan, leucine and histidine with 2.5 mM 3-amino-1,2,4-triazole, re-plated on media also lacking adenine
[4] = target: T3, MRE11-nYFP (Arabidopsis thaliana); assay: split reporter; BiFC with halves of Venus YFP, transient expression in Arabidopsis leaf protoplasts, confocal fluorescence microscopy

Binder	binding [1]	binding [2]	binding [3]	binding [4]
B1	binds	binds	binds	
B2				binds
B3				binds
B4				binds
B5				no binding
